Experimental data published in the supplement of paper PMC4604168 (melanoma cell lines).
The other results are listed elsewhere or left out. Repeats are few or missing, and single values can be far off.

These compounds were tested on LB2518-MEL (assay: cell count relative to DMSO control; melanoma cells; higher = more viable cells). Conditions: library dose: low library concentration; 72 h.
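Further: cell number obtained by counting DAPI-stained nuclei in high-throughput microscope images with image analysis software, screen run in 1,536-well plates.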

| Structure (SMILES) | cell count [%] |
| --- | --- |
| N#CC[C@H](C1CCCC1)n1cc(-c2ncnc3[nH]ccc23)cn1 [ruxolitinib] + COc1ccc(Cl)c(Nc2nc3ccccc3nc2NS(=O)(=O)c2cccc(NC(=O)C(C)(C)N)c2)c1 [XL147] (first compound 1 µM, partner dose 0.8 µM) | 108 |
| N#CC[C@H](C1CCCC1)n1cc(-c2ncnc3[nH]ccc23)cn1 [ruxolitinib] + Cc1cn(-c2cc(NC(=O)c3ccc(C)c(Nc4nccc(-c5cccnc5)n4)c3)cc(C(F)(F)F)c2)cn1 [nilotinib] (first compound 1 µM, partner dose 0.2 µM) | 137 |
| N#CC[C@H](C1CCCC1)n1cc(-c2ncnc3[nH]ccc23)cn1 [ruxolitinib] + COc1ccc(C2=N[C@@H](c3ccc(Cl)cc3)[C@@H](c3ccc(Cl)cc3)N2C(=O)N2CCNC(=O)C2)c(OC(C)C)c1 [Nutlin-3] (first compound 1 µM, partner dose 0.1 µM) | 132 |
| CC[C@]1(O)C[C@H]2CN(CCc3c([nH]c4ccccc34)[C@@](C(=O)OC)(c3cc4c(cc3OC)N(C=O)[C@H]3[C@@](O)(C(=O)OC)[C@H](OC(C)=O)[C@]5(CC)C=CCN6CC[C@]43[C@@H]65)C2)C1 [vincristine] + O=C(O)[C@@H]1[O][Sb](=[O])([O][Sb]2(=[O])[O][C@H]([C@H](O)CO)[C@H](O)[C@H](C(=O)O)[O]2)[O][C@H]([C@H](O)CO)[C@@H]1O [stibogluconate] (first compound 0.0001 µM, partner dose 2 µM) | 131 |
| N#CC[C@H](C1CCCC1)n1cc(-c2ncnc3[nH]ccc23)cn1 [ruxolitinib] + Nc1cccc2c1CN(C1CCC(=O)NC1=O)C2=O [lenalidomide] (first compound 1 µM, partner dose 1 µM) | 142 |
| CC[C@]1(O)C[C@H]2CN(CCc3c([nH]c4ccccc34)[C@@](C(=O)OC)(c3cc4c(cc3OC)N(C=O)[C@H]3[C@@](O)(C(=O)OC)[C@H](OC(C)=O)[C@]5(CC)C=CCN6CC[C@]43[C@@H]65)C2)C1 [vincristine] + C#Cc1cccc(Nc2ncnc3cc(OCCOC)c(OCCOC)cc23)c1 [erlotinib] (first compound 0.0001 µM, partner dose 0.8 µM) | 63.2 |
| N#CC[C@H](C1CCCC1)n1cc(-c2ncnc3[nH]ccc23)cn1 [ruxolitinib] + C#Cc1cccc(Nc2ncnc3cc(OCCOC)c(OCCOC)cc23)c1 [erlotinib] (first compound 1 µM, partner dose 0.8 µM) | 109 |
| Cc1cc(Nc2cc(N3CCN(C)CC3)nc(Sc3ccc(NC(=O)C4CC4)cc3)n2)n[nH]1 [Tozasertib] + O=c1cc(-c2cccc3c2Sc2ccccc2S3)oc(N2CCOCC2)c1 [KU55933] (first compound 0.006 µM, partner dose 1 µM) | 107 |
| N#CC[C@H](C1CCCC1)n1cc(-c2ncnc3[nH]ccc23)cn1 [ruxolitinib] + COCC[n+]1c2c(n(Cc3cnccn3)c1C)C(=O)c1ccccc1C2=O [YM155] (first compound 1 µM, partner dose 0.0004 µM) | 88.2 |
| CC[C@]1(O)C[C@H]2CN(CCc3c([nH]c4ccccc34)[C@@](C(=O)OC)(c3cc4c(cc3OC)N(C=O)[C@H]3[C@@](O)(C(=O)OC)[C@H](OC(C)=O)[C@]5(CC)C=CCN6CC[C@]43[C@@H]65)C2)C1 [vincristine] + NC(=O)c1ccc(N(C(N)=O)c2c(F)cccc2F)nc1-c1ccc(F)cc1F [VX702] (first compound 0.0001 µM, partner dose 0.4 µM) | 95.4 |
| CC[C@]1(O)C[C@H]2CN(CCc3c([nH]c4ccccc34)[C@@](C(=O)OC)(c3cc4c(cc3OC)N(C=O)[C@H]3[C@@](O)(C(=O)OC)[C@H](OC(C)=O)[C@]5(CC)C=CCN6CC[C@]43[C@@H]65)C2)C1 [vincristine] + CC(=O)c1c(C)c2cnc(Nc3ccc(N4CCNCC4)cn3)nc2n(C2CCCC2)c1=O [palbociclib] (first compound 0.0001 µM, partner dose 0.04 µM) | 87.2 |
| N#CC[C@H](C1CCCC1)n1cc(-c2ncnc3[nH]ccc23)cn1 [ruxolitinib] + CCCS(=O)(=O)Nc1ccc(F)c(C(=O)c2c[nH]c3ncc(Cl)cc23)c1F [PLX4720] (first compound 1 µM, partner dose 0.08 µM) | 128 |
| Cc1cc(Nc2cc(N3CCN(C)CC3)nc(Sc3ccc(NC(=O)C4CC4)cc3)n2)n[nH]1 [Tozasertib] + NC(=O)c1ccc(N(C(N)=O)c2c(F)cccc2F)nc1-c1ccc(F)cc1F [VX702] (first compound 0.006 µM, partner dose 0.4 µM) | 90.9 |
| N#CC[C@H](C1CCCC1)n1cc(-c2ncnc3[nH]ccc23)cn1 [ruxolitinib] + Clc1ccc(Nc2nnc(Cc3ccncc3)c3ccccc23)cc1 [vatalanib] (first compound 1 µM, partner dose 2 µM) | 138 |
| N#CC[C@H](C1CCCC1)n1cc(-c2ncnc3[nH]ccc23)cn1 [ruxolitinib] + O=C(/C=C/c1cccnc1)NCCCCC1CCN(C(=O)c2ccccc2)CC1 [FK866] (first compound 1 µM, partner dose 0.01 µM) | 112 |
| Cc1cc(Nc2cc(N3CCN(C)CC3)nc(Sc3ccc(NC(=O)C4CC4)cc3)n2)n[nH]1 [Tozasertib] + CN(NC(=O)CC(=O)NN(C)C(=S)c1ccccc1)C(=S)c1ccccc1 [STA4783] (first compound 0.006 µM, partner dose 0.006 µM) | 73.1 |
| N#CC[C@H](C1CCCC1)n1cc(-c2ncnc3[nH]ccc23)cn1 [ruxolitinib] + CO[C@H]1C[C@@H]2CC[C@@H](C)[C@@](O)(O2)C(=O)C(=O)N2CCCC[C@H]2C(=O)O[C@H]([C@H](C)C[C@@H]2CC[C@@H](OCCO)[C@H](OC)C2)CC(=O)[C@H](C)/C=C(\C)[C@@H](O)[C@@H](OC)C(=O)[C@H](C)C[C@H](C)/C=C/C=C/C=C/1C [everolimus] (first compound 1 µM, partner dose 0.02 µM) | 97.6 |
| Cc1cc(Nc2cc(N3CCN(C)CC3)nc(Sc3ccc(NC(=O)C4CC4)cc3)n2)n[nH]1 [Tozasertib] + CC1(C)NC(=O)N(c2ccc([N+](=O)[O-])c(C(F)(F)F)c2)C1=O [nilutamide] (first compound 0.006 µM, partner dose 1 µM) | 87.2 |
| CC[C@]1(O)C[C@H]2CN(CCc3c([nH]c4ccccc34)[C@@](C(=O)OC)(c3cc4c(cc3OC)N(C=O)[C@H]3[C@@](O)(C(=O)OC)[C@H](OC(C)=O)[C@]5(CC)C=CCN6CC[C@]43[C@@H]65)C2)C1 [vincristine] + COc1ccc(Cl)c(Nc2nc3ccccc3nc2NS(=O)(=O)c2cccc(NC(=O)C(C)(C)N)c2)c1 [XL147] (first compound 0.0001 µM, partner dose 0.8 µM) | 102 |
| Cc1cc(Nc2cc(N3CCN(C)CC3)nc(Sc3ccc(NC(=O)C4CC4)cc3)n2)n[nH]1 [Tozasertib] + COc1cc([C@@H]2c3cc4c(cc3[C@@H](O[C@@H]3O[C@@H]5CO[C@@H](C)O[C@H]5[C@H](O)[C@H]3O)[C@H]3COC(=O)[C@H]23)OCO4)cc(OC)c1O [etoposide] (first compound 0.006 µM, partner dose 0.02 µM) | 105 |
| CC[C@]1(O)C[C@H]2CN(CCc3c([nH]c4ccccc34)[C@@](C(=O)OC)(c3cc4c(cc3OC)N(C=O)[C@H]3[C@@](O)(C(=O)OC)[C@H](OC(C)=O)[C@]5(CC)C=CCN6CC[C@]43[C@@H]65)C2)C1 [vincristine] + Oc1nc(-c2ccc(C(F)(F)F)cc2)nc2c1CSCC2 [XAV939] (first compound 0.0001 µM, partner dose 2 µM) | 92 |
| N#CC[C@H](C1CCCC1)n1cc(-c2ncnc3[nH]ccc23)cn1 [ruxolitinib] + Cn1nnc2c(C(N)=O)ncn2c1=O [temozolomide] (first compound 1 µM, partner dose 2 µM) | 142 |
| Cc1cc(Nc2cc(N3CCN(C)CC3)nc(Sc3ccc(NC(=O)C4CC4)cc3)n2)n[nH]1 [Tozasertib] + Nc1nc(F)nc2c1ncn2[C@@H]1O[C@H](CO)[C@@H](O)[C@@H]1O [fludarabine] (first compound 0.006 µM, partner dose 0.2 µM) | 80.1 |
